Source: PubChem BioAssay AID1768 (National Center for Advancing Translational Sciences (NCATS), 2009)
About 620 (0.23%) of roughly 270,000 compounds were called active. The inconclusive results got no clear call from the source; some entries with a clear call stand among them for comparison. Calls follow the shape of the dose curve; as a rule, active = well fitted inhibition curve with a large enough effect in the polarisation, with a control signal flat (not every such curve was filed as active); inconclusive = small, poorly fitted or top-dose-only effect, or effect the other way, or a change in a side signal; inactive = no such curve, though single readings can be large or run the other way; the % refers to the polarisation. Potencies beside an inconclusive call are fits to weak or partial responses and may not hold up. A note “side channel” means that the fit belongs to a control or component signal, not to the main read-out.

Molecular target: Menin (Homo sapiens) (UniProt O00255)
Sequence of UniProt O00255 (O00255 whole entry, looked up): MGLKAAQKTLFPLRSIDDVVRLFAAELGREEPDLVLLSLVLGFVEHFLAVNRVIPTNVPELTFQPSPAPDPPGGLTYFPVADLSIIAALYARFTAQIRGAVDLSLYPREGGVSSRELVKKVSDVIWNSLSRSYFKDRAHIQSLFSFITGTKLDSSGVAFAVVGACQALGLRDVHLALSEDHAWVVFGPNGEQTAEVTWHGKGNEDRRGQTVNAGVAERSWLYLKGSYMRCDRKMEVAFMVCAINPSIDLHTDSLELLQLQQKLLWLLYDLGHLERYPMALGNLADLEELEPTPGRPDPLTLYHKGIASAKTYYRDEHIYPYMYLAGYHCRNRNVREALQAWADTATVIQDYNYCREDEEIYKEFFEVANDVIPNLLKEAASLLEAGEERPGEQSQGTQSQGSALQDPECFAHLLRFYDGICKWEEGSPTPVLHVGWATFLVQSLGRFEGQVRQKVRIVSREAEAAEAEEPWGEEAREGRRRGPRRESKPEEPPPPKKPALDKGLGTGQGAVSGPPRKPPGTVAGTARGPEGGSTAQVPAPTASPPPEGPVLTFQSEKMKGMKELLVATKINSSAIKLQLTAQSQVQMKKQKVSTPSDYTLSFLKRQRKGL
Experiment: qHTS Assay for Inhibitors Targeting the Menin-MLL Interaction in MLL Related Leukemias: Competition With Texas Red Labeled MLL-derived Mutant Peptide; as to FP activity change, negative = inhibition: % of control where 0% means no effect
Conditions: fluorescence polarization; FP activity change, negative = inhibition: at 61.6 µM (top of the series)
Potency is read from the fitted curve at half-maximal effect; tags tell the direction and shape of the fitted curve or compound fluorescence and quenching.

Potency, inconclusive:
CCNC(=S)N(CCc1c(C)[nH]c2ccc(C)cc12)Cc1cc(OC)c(OC)c(OC)c1 39.8 µM [quencher, side channel, single point]
CCn1nccc1C(=O)Nc1cc(Cl)cc(Cl)c1 39.8 µM [quencher, side channel, single point]
COCCn1nnnc1C(c1ccc(OC)cc1OC)N1CCN(c2ccccc2)CC1 (centres undefined) 3.16 µM [inhibitor, partial curve, poor fit]
COc1ccc(C(=O)N/N=C/c2ccc(OC(=O)c3cccc4ccccc34)c([N+](=O)[O-])c2)cc1 14.1 µM [quencher, side channel, partial curve]
CC(=O)Oc1cc(-c2coc3cc(OC(C)=O)c(OC(C)=O)c(OC(C)=O)c3c2=O)cc(OC(C)=O)c1OC(C)=O 39.8 µM [quencher, side channel, single point]
Cc1cc2c(=O)n(Cc3ccco3)c(SCC(=O)N3CCCc4ccccc43)nc2s1 8.91 µM [fluorescent, side channel, partial curve]
CCOC(=O)c1ccc(NC(=O)c2cn(CCC#N)nc2-c2ccc3c(c2)OCCO3)cc1 28.2 µM [quencher, side channel, single point]
CCN(CC)C(=O)Cn1cc(/C=C(\C#N)C(=O)NC2CC2)c2ccccc21 3.16 µM [inhibitor, partial curve]
COc1ccc(-c2cc(C(F)(F)F)nc(SCc3cccc(C(=O)O)c3)n2)cc1 12.6 µM [quencher, side channel, partial curve]
COc1ccc(-c2noc(N(C)CC(=O)Nc3cccc(C(F)(F)F)c3)n2)cc1 10 µM [quencher, side channel, partial curve]
COc1ccc(NC(=S)Nc2ccc(C)c(S(=O)(=O)N3CCCCC3)c2)cc1 39.8 µM [quencher, side channel, single point]
O=C(NC(=S)Nc1ccc(C(=O)N2CCOCC2)cc1)c1ccc([N+](=O)[O-])cc1 39.8 µM [inhibitor, single point]
O=C(Nc1ccccc1)c1cc(-n2cnnc2)ccc1Cl 3.55 µM [inhibitor, partial curve]
CN1CCN(S(=O)(=O)c2ccc(NC(=O)c3csc4ccccc34)cc2)CC1 14.1 µM [quencher, side channel, partial curve]
CCCn1c(SCC(=O)N2c3ccccc3CCc3ccccc32)nc2c1c(=O)n(C)c(=O)n2C 5.01 µM [inhibitor, full curve, poor fit]
Cc1ccc(N=Nc2ccc3ccccc3c2O)cc1 31.6 µM [fluorescent, side channel, partial curve]
CCS(=O)(=O)CCSc1nc(C)cc(C)c1C#N 2.24 µM [inhibitor, partial curve]
N#Cc1nc(-c2cccs2)oc1NCc1ccc2c(c1)OCO2 8.91 µM [quencher, side channel, full curve]
O=[N+]([O-])c1cc(C(F)(F)F)cc([N+](=O)[O-])c1NCCN1CCNCC1 12.6 µM [inhibitor, partial curve]
COc1ccc2c3c(c(=O)oc2c1)C1O[C@](c2ccsc2)(Cc2cc(C#N)ccc21)O3 2 µM [quencher, side channel, partial curve]
COc1cc(C(=O)Nc2c(C(=O)O)[nH]c3ccc(Br)cc23)cc(OC)c1OC 14.1 µM [quencher, side channel, partial curve]
Cn1nccc1C(=O)N/N=C/c1c(O)ccc2ccccc12 5.01 µM [quencher, side channel, full curve, poor fit]
O=[N+]([O-])c1ccccc1S(=O)(=O)N1CCN(c2ccccc2)CC1 31.6 µM [quencher, side channel, single point]
COCc1cc(CN2CCCC(C(=O)c3cccc(C(F)(F)F)c3)C2)ccc1OC (centres undefined) 11.2 µM [fluorescent, side channel, partial curve]
Cc1ccc(C2(CCNCc3ccc(N(C)C)cc3)CCOC(C(C)C)C2)cc1 (centres undefined) 2 µM [fluorescent, side channel, full curve, poor fit]
Cc1cccc(C)c1OCC(=O)Nc1cccc(-c2nnc(-c3ccccc3)o2)c1 4.47 µM [inhibitor, single point]
O=C1NC(=S)S/C1=C1\Sc2ccccc2N1CCCS(=O)(=O)O 31.6 µM [quencher, side channel, single point]
O=C(COc1ccccc1/C=C1\SC(=O)NC1=O)Nc1ccc(F)cc1 35.5 µM [quencher, side channel, single point]
CCCCCC(=O)Nc1nc(C)c(-c2csc(Nc3cc(OC)ccc3OC)n2)s1 10 µM [quencher, side channel, partial curve]
Cc1ccccc1N1CCN(C2CCCN(C(=O)c3csc(C(C)C)n3)C2)CC1 (centres undefined) 8.91 µM [inhibitor, partial curve]
Cc1cc(C(=O)NCCCOC(C)C)c2ccccc2n1 6.31 µM [inhibitor, full curve]
NC(=NCCc1ccccc1)NS(=O)(=O)c1ccccc1F 0.708 µM [quencher, side channel, full curve]
COc1ccc(C(=O)/C(C#N)=N/Nc2ccc([N+](=O)[O-])cc2)cc1 7.94 µM [quencher, side channel, partial curve]
COc1ccc(/C=N/Nc2nc(-c3cccc(S(=O)(=O)N4CCCC4)c3)cs2)cc1OC 10 µM [quencher, partial curve]
Cc1cccc(C(=O)NC2CCN(S(=O)(=O)c3ccc(F)cc3)CC2)c1 39.8 µM [fluorescent, single point]
CCn1c(=O)c(C(=O)CN(C)Cc2ccc(F)cc2)c(N)n(Cc2ccccc2)c1=O 12.6 µM [inhibitor, single point]
Nc1ccc(N)c(C(=O)O)c1 15.8 µM [inhibitor, partial curve, poor fit]
CN(C)c1nnnn1-c1ccc(Oc2ccccc2)cc1 25.1 µM [fluorescent, side channel, partial curve]
Cn1nnnc1SCCNCc1cc(Cl)ccc1OCc1ccccc1 31.6 µM [fluorescent, side channel, single point]
CCSc1nsc(NC(=O)Nc2cccc(C(C)=O)c2)n1 14.1 µM [quencher, side channel, partial curve]
Cc1c(Cl)cccc1NC(=O)CSc1sc2c(O)cc(=O)[nH]c2c1C#N 25.1 µM [quencher, side channel, single point]
Cc1ccc(NCC(=O)N/N=C/c2c[nH]c3ccccc23)cc1 25.1 µM [quencher, single point]
c1ccc(COc2ccc(-c3csnn3)cc2)cc1 31.6 µM [fluorescent, side channel, single point]
Cc1ccc(SCc2c(C(=O)N/N=C/c3ccncc3)nnn2-c2nonc2N)cc1 35.5 µM [fluorescent, side channel, single point]
CC(=O)NC(c1ccccc1)c1cc([N+](=O)[O-])c2cccnc2c1O (centres undefined) 28.2 µM [quencher, side channel, partial curve]
CCN(CC)c1ccc(/C=N/OCC(=O)N2CCCc3ccccc32)cc1 25.1 µM [fluorescent, side channel, single point]
Cc1[nH]c2ccccc2c1/C=N/NC(=O)c1ccccc1 35.5 µM [quencher, side channel, single point]
COc1ccccc1NC(=O)Nc1nc2ccc(S(N)(=O)=O)cc2s1 39.8 µM [fluorescent, side channel, single point]

FP activity change, negative = inhibition, inactive:
O=S(=O)(c1ccc2ccccc2c1)N1CCOCC1 -1.37%
CCOC(=O)Nc1nnc(-c2ccc(OC)cc2)s1 -7.3%
CNc1nc(-c2ccccc2C)nc2ccccc12 -2.93%
Cc1ccc(Cl)c(N/C=C/C(=O)c2ccccc2)c1 -0.0788%
O=C(Cn1c(=O)oc2ccccc21)Nc1ccc(F)cc1 7.32%
CCOC(=O)c1sc2nc(CC(=O)OC)nc(NCc3ccco3)c2c1C 1.13%
Cc1ccc(-n2c(SCC(=O)Nc3ccc4c(c3)OCO4)nnc2-c2cccs2)cc1 7.99%
COc1cc2cc(C(c3nnnn3C3CCCC3)N3CCCCC3)c(=O)[nH]c2cc1OC (centres undefined) -16.6%
COCCn1c(=O)c(-c2ccccc2)nc2cnc(N(C)C)nc21 9.94%
CC(=O)Nc1nonc1-c1nc2ccccc2n1N(C(C)=O)C(C)=O 11.4%
COc1cc(-c2c(C#N)c(N)nc3c2c(C)nn3-c2ccc(C)c(C)c2)cc(OC)c1OC 7.7%
